Where “and” joins values, the source holds several entries; their conditions need not be identical. Equal entries are not always repeated. Screen size: about 380,000 compounds; about 4,000 (1.1%) were called active. The inconclusive results got no clear call from the source; some entries with a clear call stand among them for comparison. The call rests on the fitted dose curve; in most records, active means well fitted activation curve with a large enough effect; inconclusive means small, poorly fitted or top-dose-only effect; inactive means no such curve, though single readings can be large or run the other way. Where the call is inconclusive, the potency comes from a doubtful curve fit.
Test: qHTS Assay to Identify Small Molecule Activators of BRCA1 Expression; further: nearly all actives have a fitted effect of over 80% in size
Settings: MCF7-BRCA1-FFLuc reporter, luminescence, 48 h; activation: at 46.1 µM (top of the series), scaled: vehicle 0%, 10 µM genistein 100% unless noted
Excerpt: Functionally, BRCA1 has been implicated in a wide array of cellular activities, including DNA damage repair, cell-cycle checkpoint control, growth inhibition, apoptosis, transcriptional regulation, chromatin remodeling, protein ubiquitylation, and mammary stem cell self-renewal and differentiation. Reduction in BRCA1 levels is associated with an increase in tumor growth and resistance to anti-estrogenic agents, such as tamoxifen, while an increase in BRCA1 expression leads to cell growth arrest and apoptosis. […] The frequent loss of BRCA1 expression in invasive breast cancers in the absence of somatic mutation has been attributed to numerous mechanisms, including hypermethylation of the BRCA1 promoter, exaggerated ubiquitylation of BRCA1 protein, and improper intracellular localization. […] Basal-like breast cancers (BLBCs) are associated with an aggressive clinical course, resistance to chemotherapy, and typically lack expression of estrogen receptor (ER), progesterone receptor (PR), and epidermal growth factor receptor 2 (HER2). BLBCs account for 10-17% of all breast cancers, have few therapeutic options, and are considered the biggest unmet need in the treatment of breast cancer. Conversely, tumors which maintain expression of functional BRCA1 are almost uniformly luminal type cancers, and are accordingly associated with more indolent clinical courses, responsiveness to endocrine therapies, and improved survival.
As such, it is possible that an increase in BRCA1 expression would enable cellular differentiation and restore tumor suppressor function, resulting in delayed tumor growth and less aggressive, more treatable breast cancers. The long term goal of this proposal is to develop a novel prevention or therapeutic agent for breast cancer patients. To accomplish this goal, the overall objective of this proposal is to access the resources provided by the NIH Molecular Libraries Roadmap Initiative and the Molecular Libraries Probe Production Centers Network (MLPCN) to discover and develop new chemical activator probes that will increase BRCA1 expression and function.
NIH Molecular Libraries Probe Production Network [MLPCN]
NIH Chemical Genomics Center [NCGC]
PI Name: Lisa Harlan-Williams, University of Kansas Medical Center
5microl of MCF7-BRCA1-FFLuc cell suspension (400 cells/microl in phenol-red free MEM) are dispensed into Greiner white solid bottom 1536-well assay plates, yielding a final well density of 2000 cells/well. Plates are incubated for 2 hours at 37 degrees C in 5% humidified CO2 to allow cell attachment. Compounds are then transferred via Kalypsys pin tool equipped with 1536-pin array (10nl slotted pins, V&P Scientific, San Diego, CA). The plates are then incubated at 37 degrees C in 5% humidified CO2 for 48 hours. The NCGC in-house luciferase substrate reagent, Buglite, is then added (2.5microl) and plates incubated for 15 minutes, before being transferred to a ViewLux high-throughput CCD imager (PerkinElmer) wherein single end-point measurements of luminescence are acquired using a clear filter. The positive control compound, genistein, will be pinned into dedicated control columns on each plate, including a 16-point 1:3 titration in duplicate, as well as a 10microM maximum activation control, allowing for the normalization of screening activity. DMSO will be pinned into a separate column as a negative control.
All screening operations will be performed on a fully integrated robotic system (Kalypsys, San Diego, CA) containing one RX-130 and two RX-90 anthropomorphic robotic arms (Staubli, Duncan, SC). Library plates will be screened starting from the lowest and proceeding to the highest concentration. Vehicle-only plates, with DMSO being pin-transferred to columns 5-48, will be inserted uniformly at the beginning and the end of each library in order to monitor and record any shifts in the background, which can be affected by reagent dispensers or loss in enzyme activity over time. […]
Potency means the concentration at half of the fitted maximal effect; tags describe the fitted curve by direction and shape.

Structure (SMILES) | Potency | activation
N#Cc1ccc(OCC(=O)N2CCc3ccccc32)cc1 | inconclusive: 11.2 µM [activator, partial curve, poor fit] | 
Cc1ccc(NC(=O)c2cc(N3CCOCC3)nc3ccccc23)cc1 |  | inconclusive: -74.7% [activator]
c1ccc(Nc2cccc(Nc3ccccc3)n2)cc1 | inconclusive: 15.8 µM [activator, single point] | 
O=C(COc1ccccc1Cl)Nc1nc(-c2cccs2)cs1 | inconclusive: 35.5 µM [activator, single point] | 
Nc1nnc(COc2ccc(Br)cc2Br)s1 | inconclusive: 10 µM [activator, partial curve, poor fit] | 
C=CCn1c(Cc2ccccc2)n[nH]c1=S | inactive | 
O=C(Nc1ccc2nsnc2c1)c1ccc2c(c1)OCO2 | inconclusive: 1 µM [activator, full curve, poor fit] | 
O=C(CSc1ccccn1)N1CCOCC1 | inconclusive: 11.2 µM [activator, partial curve, poor fit] | 
CC1CN(C(=O)c2ccc(COc3ccc4ccccc4c3)o2)CC(C)O1 (configuration not stated) | inconclusive: 12.6 µM [activator, partial curve, poor fit] | 
O=C(NCCOc1ccccc1)c1ccc2c(c1)OCO2 |  | inconclusive: -77.1% [activator]
Cc1ccc(N=Nc2c(O)[nH]c3ccc(F)cc23)cc1 | inconclusive: 10 µM [activator, partial curve, poor fit] | 
Nc1nc2c(s1)CCc1c-2cnn1-c1ccccc1 | inconclusive: 2.82 µM [activator, full curve, poor fit] and inconclusive: 1.58 µM [activator, full curve, poor fit] | 
CC(C)CC(NC(=O)c1cccc(Cl)c1)C(=O)O (configuration not stated) | inactive | 
CCc1sc(C(=O)N2CCCN(C)CC2)cc1Br | inactive | 
Cc1ccc(-c2nnc(NC(=O)Cc3ccc(F)cc3)o2)c(C)c1 | inactive | 
CC(=O)c1cccc(NC(=S)NC(=O)c2ccccc2)c1 | inconclusive: 2.51 µM [activator, partial curve, poor fit] | 
COc1ccc(-c2nc(CCl)cs2)cc1 | inconclusive: 8.91 µM [activator, partial curve, poor fit] | 
Clc1nssc1=Nc1ccccc1 | inactive | 
Cc1ccc2cc3cc(C(=O)N4CCCCCC4)oc3nc2c1 | inconclusive: 0.562 µM [activator, full curve, poor fit] | 
C/C(=N\Nc1ccc(Cl)c(C(=O)O)c1)c1ccc(N2CCOCC2)cc1 | inconclusive: 14.1 µM [activator, partial curve, poor fit] | 
COc1ccc(C(=O)/C(=C/N(C)C)S(=O)(=O)c2ccccc2)cc1 | active: 3.16 µM | 
CN(C)Cc1c(O)ccc2cc(-c3nc4ccccc4n3C)c(=O)oc12 | active: 12.6 µM | 
CSc1nc2ccc3nc(NC(=O)c4ccccc4)sc3c2s1 | inconclusive: 1.78 µM [activator, partial curve, poor fit] | 
C(#Cc1ccccc1)Cn1nnc2ccccc21 | active: 12.6 µM | 
CN1CCN(C(=O)c2ccc(-c3cccs3)s2)CC1 | inconclusive: 1.26 µM [activator, full curve, poor fit] | 
CCCC(=O)Nc1ccc2oc(-c3ccc(OC)c(Br)c3)nc2c1 | inconclusive: 11.2 µM [activator, partial curve, poor fit] | 

Structure (SMILES) | Potency | activation
O=[N+]([O-])c1ccccc1OCc1nc(-c2cccs2)no1 | active: 2.82 µM | 
O=C(Nc1ccc2nccnc2c1)c1ccco1 | active: 10 µM | 
CC1CCN(C(=O)CSc2nc3ccccc3[nH]2)CC1 | active: 3.55 µM | 
O=C(/C=C/Nc1ccccc1)c1ccc(Cl)cc1Cl | inconclusive: 1.41 µM [activator, partial curve, poor fit] | 
O=C(/C=C/c1c(F)cccc1Cl)N1CCOCC1 | active: 10 µM | 
COc1ccc(/C=C/C(=O)NC(C)CCc2ccccc2)cc1OC (configuration not stated) | inactive | 
Cc1ccc(-c2nnc(CCC(=O)NCC3C4CC5CC(C4)CC3C5)o2)s1 (configuration not stated) | inconclusive: 12.6 µM [activator, partial curve, poor fit] | 
O=C(COc1ccccc1Cl)Nc1ccc(-c2nc3ccccc3s2)cc1 | inconclusive: 1.58 µM [activator, full curve, poor fit] | 
COc1ccc(OCC(=O)NC(=S)NNC(=O)COc2ccc(Br)cc2Cl)cc1 | inconclusive: 35.5 µM [activator, single point] | 
Cc1cc(C(=O)COC(=O)/C=C/c2ccco2)c(C)n1C | inconclusive: 20 µM [activator, partial curve, poor fit] | 
CCC(=O)Nc1cccc(NC(=S)NC(=O)c2ccc(Cl)cc2)c1 | inconclusive: 15.8 µM [activator, partial curve, poor fit] | 
Nc1ccc2c(c1)C(=O)c1ccc(N)cc1-2 | inconclusive: 17.8 µM [activator, single point] | 
Cc1ccc2nc(SCC3CCCCO3)[nH]c2c1 (configuration not stated) |  | inconclusive: -43.6% [activator]
CN1CCN(c2ccc(Nc3ccnc4cc(Cl)ccc34)cc2)CC1 | inactive | 
Cc1ccccc1CN1C(=O)c2ccccc2Sc2ccc(C(=O)NCCN3CCOCC3)cc21 | inactive | 
COc1ccc(N(CCCN2C(=O)c3cccc4cccc(c34)C2=O)C(=O)c2cccc(OC)c2)cc1 | inactive | 
Brc1ccc(N/N=C(/N=Nc2nn[nH]n2)c2ccccc2)cc1 | inactive | 
CCCNC(=O)C1CC(=O)N(c2ccc(OCc3ccccc3)cc2)C1 (configuration not stated) | active: 3.16 µM | 
C=CCc1cccc2cc(-c3nc4ccc(C)cc4[nH]3)c(=O)oc12 | active: 2 µM | 
CC(C)C(=O)Nc1ccc(/C=C2\C=Cc3ccccc32)cc1 | inconclusive: 1.41 µM [activator, full curve, poor fit] | 
CC(=O)Nc1ccc(/C=C/c2sc3ccccc3[n+]2CCCCI)cc1 | inconclusive: 22.4 µM [activator, single point] | 
COc1cc(C(=O)Nc2nc3ccccc3[nH]2)ccc1OC(F)F | inconclusive: 2.82 µM [activator, full curve, poor fit] | 
Cc1ccc(CC(=O)Nc2cccc(C)n2)cc1 | active: 10 µM | 
CCOC(=O)C1=C(N)Oc2c(oc(CO)cc2=O)C1c1c(F)cccc1Cl (configuration not stated) | inactive | 
O=C(Nc1ccc2ncccc2c1)c1cc(Cl)ccc1Cl | active: 7.94 µM | 
N#Cc1ccc(C(=O)Nc2nc3ccccc3[nH]2)cc1 | inconclusive: 1.26 µM [activator, full curve, poor fit] | 

Structure (SMILES) | Potency | activation
CCC(=O)Nc1ccc2c(c1)C(=O)c1ccccc1C2=O | inconclusive: 2 µM [activator, partial curve, poor fit] | 
COc1ccc(C(=O)CN2C(=O)NC3(CCCCCC3)C2=O)c(OC)c1 | inconclusive: 35.5 µM [activator, single point] | 
COc1cccc(N/C(SCc2ccccc2F)=C(/C#N)C(=O)NCc2cccs2)c1 | inactive | 
COc1cc(C)ccc1OCCCOc1ccccc1Cl | active: 12.6 µM | 
CC(=O)Nc1ccc(/C=C/c2ccnc3ccccc23)cc1[N+](=O)[O-] | inactive | 
COc1ccccc1N/C=C(\C#N)c1nc2ccccc2[nH]1 | inactive | 
COC(=O)CNC(=O)C1CCC(CNS(=O)(=O)c2cccc3nsnc23)CC1 (configuration not stated) | inactive | 
FC(F)(F)Oc1ccc(-c2cn3cccnc3n2)cc1 | inconclusive: 12.6 µM [activator, partial curve, poor fit] | 
Cc1nn2cc(-c3ccc(Cl)cc3)cnc2c1Br | active: 8.91 µM | 
N#C/C(C(=O)N1CCCCC1)=C1\Nc2ccccc2S1 | active: 8.91 µM | 
Cc1ccc(Cn2cccc(-c3nc4ccccc4s3)c2=O)cc1 | inconclusive: 2 µM [activator, full curve, poor fit] | 
COc1ccc(C(=O)COC(=O)c2cccs2)cc1 | active: 12.6 µM | 
CN(C)/C=C(\C#N)C(=O)c1cccc(Oc2ccc(Br)cc2)c1 | inactive | 
CCCCCCN1CCN(C2CN(Cc3cn(Cc4ccccc4)nn3)S(=O)(=O)C2)CC1 (configuration not stated) | inactive | 
O=C1NC[C@H](c2ccccc2)N(CCCCC2CCCCC2)C1=O | inactive | 
COc1ccc(-c2cc(=O)c3c(C)cc(O)cc3o2)cc1 | inconclusive: 2.51 µM [activator, partial curve, poor fit] | 
CC(CC(=O)c1cccs1)CC(=O)c1cccs1 | active: 12.6 µM | 
COc1cc(C2CC(=O)Nc3ccccc3S2)cc(OC)c1OC (configuration not stated) | inactive | 
Fc1ccc(CSc2nnc(-c3cccs3)o2)cc1 | inconclusive: 20 µM [activator, partial curve, poor fit] | 
CC1CCC(NC(=O)c2ccc(N3CCCC3=O)cc2)CC1 (configuration not stated) | inconclusive: 20 µM [activator, partial curve, poor fit] | 
Cc1ccc2c(c1)C(=O)CC(c1ccccc1)S2 (configuration not stated) | inconclusive: 2.51 µM [activator, full curve, poor fit] | 
O=C(NCCC1CCCC1)c1cccs1 | active: 11.2 µM | 
O=C(Nc1ccc(Cc2ccncc2)cc1)c1ccco1 | inconclusive: 14.1 µM [activator, partial curve, poor fit] | 
Cc1nnc(SCc2ccc(F)cc2Cl)s1 | inconclusive: 11.2 µM [activator, partial curve, poor fit] | 
Cc1ccc2c(c1)COc1c3ccc(C(=O)NC(C)C)cc3nn1-2 | inconclusive: 0.501 µM [activator, full curve, poor fit] | 

Reference: PubChem BioAssay AID624202 (National Center for Advancing Translational Sciences (NCATS), 2012)
